# Results as given in the supplement of paper PMC6089552.
# In all, about 3,200 compounds went through this assay and about 300 (9.4%) showed activity. Only a part is listed here, and it is no random draw.
# Test system: A673/TR/shEF
# Assay: cell viability (LOESS-normalised, relative to median of negative controls) (log2 ratio); higher = more viable cells (less compound effect), active = hit call of the paper (over 3 MAD below the median)
# Settings: treatment time: 72 h
# Method in brief: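 A673/TR/shEF Ewing sarcoma cells (1,500 per well, 384-well plates) were grown with or without doxycycline to induce EWS-FLI1 shRNA knockdown, starting 24 h before compounds. Library compounds at two or more concentrations, with DMSO controls, were added for three days. Cell viability was read by CellTiter-Glo luminescence on an Envision reader, then LOESS-corrected per plate, divided by the median of negative controls and log2-transformed. Hits were wells at least three median absolute deviations from the median of all screened wells.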
# [1] = 0.25 µM, library screen: screen2, EWS-FLI1 expression: high (no doxycycline)
# [2] = 0.25 µM, library screen: screen2, EWS-FLI1 expression: low (doxycycline-induced shRNA knockdown)
# [3] = 2.5 µM, library screen: screen2, EWS-FLI1 expression: high (no doxycycline)
# [4] = 2.5 µM, library screen: screen2, EWS-FLI1 expression: low (doxycycline-induced shRNA knockdown)
# [5] = 0.25 µM, library screen: screen1, EWS-FLI1 expression: high (no doxycycline)
# [6] = 0.25 µM, library screen: screen1, EWS-FLI1 expression: low (doxycycline-induced shRNA knockdown)
# [7] = 2.5 µM, library screen: screen1, EWS-FLI1 expression: high (no doxycycline)
# [8] = 2.5 µM, library screen: screen1, EWS-FLI1 expression: low (doxycycline-induced shRNA knockdown)
# [9] = 0.103 µM, library screen: screen3, EWS-FLI1 expression: high (no doxycycline)
# [10] = 0.103 µM, library screen: screen3, EWS-FLI1 expression: low (doxycycline-induced shRNA knockdown)
# [11] = 0.308 µM, library screen: screen3, EWS-FLI1 expression: high (no doxycycline)
# [12] = 0.308 µM, library screen: screen3, EWS-FLI1 expression: low (doxycycline-induced shRNA knockdown)
# [13] = 0.926 µM, library screen: screen3, EWS-FLI1 expression: high (no doxycycline)
# [14] = 0.926 µM, library screen: screen3, EWS-FLI1 expression: low (doxycycline-induced shRNA knockdown)
# [15] = 2.8 µM, library screen: screen3, EWS-FLI1 expression: high (no doxycycline)
# [16] = 2.8 µM, library screen: screen3, EWS-FLI1 expression: low (doxycycline-induced shRNA knockdown)
# [17] = 8.3 µM, library screen: screen3, EWS-FLI1 expression: high (no doxycycline)
# [18] = 8.3 µM, library screen: screen3, EWS-FLI1 expression: low (doxycycline-induced shRNA knockdown)
# [19] = 25 µM, library screen: screen3, EWS-FLI1 expression: high (no doxycycline)
# [20] = 25 µM, library screen: screen3, EWS-FLI1 expression: low (doxycycline-induced shRNA knockdown)
smiles,measurement,setting,value
CCCn1c(=O)c2[nH]c(-c3ccc(S(=O)(=O)O)cc3)nc2n(CCC)c1=O,cell viability (log2),[1],inactive: 0.268
same,cell viability (log2),[2],inactive: 0.14
same,cell viability (log2),[3],inactive: 0.145
same,cell viability (log2),[4],inactive: 0.142
CC(C)CCC[C@@H](C)[C@H]1CC[C@H]2[C@@H]3C(=O)C=C4C[C@@H](O)CC[C@]4(C)[C@H]3CC[C@]12C,cell viability (log2),[5],inactive: 0.0534
same,cell viability (log2),[6],inactive: 0.0186
same,cell viability (log2),[7],inactive: 0.0996
same,cell viability (log2),[8],inactive: -0.109
Cc1ccccc1N1C(=O)c2cc(S(N)(=O)=O)c(Cl)cc2NC1C (stereo not drawn),cell viability (log2),[9],inactive: 0.0277
same,cell viability (log2),[10],inactive: 0.0324
same,cell viability (log2),[5],inactive: 0.0253
same,cell viability (log2),[6],inactive: 0.102
same,cell viability (log2),[1],inactive: 0.164
same,cell viability (log2),[2],inactive: 0.107
same,cell viability (log2),[11],inactive: 0.065
same,cell viability (log2),[12],inactive: 0.0892
same,cell viability (log2),[13],inactive: 0.0528
same,cell viability (log2),[14],inactive: 0.0799
same,cell viability (log2),[7],inactive: 0.0374
same,cell viability (log2),[8],inactive: 0.071
same,cell viability (log2),[3],inactive: 0.15
same,cell viability (log2),[4],inactive: 0.121
same,cell viability (log2),[15],inactive: 0.0296
same,cell viability (log2),[16],inactive: 0.0636
same,cell viability (log2),[17],inactive: 0.0226
same,cell viability (log2),[18],inactive: 0.0707
same,cell viability (log2),[19],inactive: 0.13
same,cell viability (log2),[20],inactive: 0.129
COc1ccc(CN2CCN(Cc3ccc(OC)c(OC)c3OC)CC2)c(OC)c1,cell viability (log2),[5],inactive: 0.0664
same,cell viability (log2),[6],inactive: 0.0443
same,cell viability (log2),[7],inactive: 0.0638
same,cell viability (log2),[8],inactive: 0.0995
O=C1N(c2ccccc2)c2ccccc2C1(Cc1ccncc1)Cc1ccncc1,cell viability (log2),[1],inactive: 0.0704
same,cell viability (log2),[2],inactive: 0.0498
same,cell viability (log2),[3],active: -0.0773
same,cell viability (log2),[4],inactive: 0.0762
[I-].[K+],cell viability (log2),[9],inactive: -0.0757
same,cell viability (log2),[10],inactive: 0.0133
same,cell viability (log2),[11],inactive: 0.0608
same,cell viability (log2),[12],inactive: -0.0377
same,cell viability (log2),[13],inactive: 0.0917
same,cell viability (log2),[14],inactive: 0.0201
same,cell viability (log2),[15],inactive: 0.102
same,cell viability (log2),[16],inactive: 0.0341
same,cell viability (log2),[17],inactive: 0.0632
same,cell viability (log2),[18],inactive: 0.0177
same,cell viability (log2),[19],inactive: 0.122
same,cell viability (log2),[20],inactive: 0.119
COc1ccc2c(c1)OCC(Cc1ccc(OC)c(OC(C)=O)c1)C2=O (stereo not drawn),cell viability (log2),[7],active: -0.246
OCCOCCN1CCN(C(c2ccccc2)c2ccc(Cl)cc2)CC1 (stereo not drawn),cell viability (log2),[5],inactive: 0.0742
same,cell viability (log2),[6],inactive: 0.025
same,cell viability (log2),[7],inactive: 0.108
same,cell viability (log2),[8],inactive: 0.00756
CC(=O)O[C@H]1C[C@@H](OC(C)=O)C(C)(C)C2C[C@@H](O)[C@]3(C)C(CC[C@@]4(C)[C@H](c5ccoc5)OC(=O)[C@H]5O[C@]543)[C@]21C (stereo partly drawn),cell viability (log2),[5],inactive: 0.0347
same,cell viability (log2),[6],inactive: 0.0768
same,cell viability (log2),[7],inactive: 0.0354
same,cell viability (log2),[8],inactive: 0.16
O=C(c1cc(-c2ccccc2)nc2ccccc12)N1CCCC1,cell viability (log2),[5],inactive: 0.0657
same,cell viability (log2),[6],inactive: 0.0915
same,cell viability (log2),[7],inactive: 0.129
same,cell viability (log2),[8],inactive: -0.0754
Nc1cccc2c1CN(C1CCC(=O)NC1=O)C2=O (stereo not drawn),cell viability (log2),[9],inactive: 0.0947
same,cell viability (log2),[10],inactive: 0.0775
same,cell viability (log2),[11],inactive: 0.159
same,cell viability (log2),[12],inactive: 0.0747
same,cell viability (log2),[13],inactive: 0.0472
same,cell viability (log2),[14],inactive: 0.124
same,cell viability (log2),[15],inactive: 0.085
same,cell viability (log2),[16],inactive: 0.0648
same,cell viability (log2),[17],inactive: 0.0408
same,cell viability (log2),[18],inactive: 0.0766
same,cell viability (log2),[19],inactive: 0.0878
same,cell viability (log2),[20],inactive: 0.135
CC(=O)Nc1ccc(O)cc1,cell viability (log2),[5],inactive: 0.0821
same,cell viability (log2),[6],inactive: 0.0336
same,cell viability (log2),[7],inactive: 0.152
same,cell viability (log2),[8],inactive: 0.104
CC(=O)Oc1c(C)c(C)c2c(c1C)CCC(C)(CCCC(C)CCCC(C)CCCC(C)C)O2 (stereo not drawn),cell viability (log2),[5],inactive: 0.136
same,cell viability (log2),[6],inactive: 0.286
same,cell viability (log2),[7],0.288
same,cell viability (log2),[8],0.357
COc1ccc(-c2cc(=O)c3c(O)cc(O[C@@H]4O[C@H](CO[C@@H]5O[C@@H](C)[C@H](O)[C@@H](O)[C@H]5O)[C@@H](O)[C@H](O)[C@H]4O)cc3o2)cc1,cell viability (log2),[5],inactive: 0.0703
same,cell viability (log2),[6],inactive: 0.0696
same,cell viability (log2),[7],inactive: 0.0879
same,cell viability (log2),[8],inactive: 0.0994
C[C@H](C[C@@H](O)[C@@H]1OC1(C)C)[C@@H]1CC[C@]2(C)C3=CC[C@H]4C(C)(C)C(=O)CC[C@]4(C)[C@H]3CC[C@@]12C,cell viability (log2),[5],inactive: 0.0762
same,cell viability (log2),[6],inactive: 0.064
same,cell viability (log2),[7],inactive: 0.0491
same,cell viability (log2),[8],inactive: 0.136
C=C1C(C)(C)[C@@]2(Cl)C(Cl)[C@]1(Cl)C(Cl)(Cl)C2(Cl)Cl (stereo partly drawn),cell viability (log2),[5],inactive: 0.0218
same,cell viability (log2),[6],inactive: 0.106
same,cell viability (log2),[7],inactive: 0.0433
same,cell viability (log2),[8],inactive: 0.0358
CC(C)CC1NC(=O)CNC1=O (stereo not drawn),cell viability (log2),[5],inactive: 0.138
same,cell viability (log2),[6],inactive: 0.0779
same,cell viability (log2),[7],inactive: 0.0859
same,cell viability (log2),[8],inactive: 0.0262
COc1cc(O)c(C)c(O)c1,cell viability (log2),[5],inactive: 0.0455
same,cell viability (log2),[6],inactive: 0.156
same,cell viability (log2),[7],inactive: 0.0996
same,cell viability (log2),[8],inactive: 0.176
NOCC(=O)O,cell viability (log2),[1],inactive: 0.106
same,cell viability (log2),[2],inactive: 0.089
same,cell viability (log2),[3],inactive: 0.0342
same,cell viability (log2),[4],inactive: 0.101
C[C@H](CCC(=O)O)[C@H]1CC[C@H]2[C@@H]3CC[C@@H]4CCCC[C@]4(C)[C@H]3CC[C@]12C,cell viability (log2),[5],inactive: 0.0641
same,cell viability (log2),[6],inactive: -0.0159
same,cell viability (log2),[7],inactive: 0.109
same,cell viability (log2),[8],inactive: -0.0358
COc1ccc(CN2CCN(Cc3ccccc3C(F)(F)F)CC2)c(OC)c1OC,cell viability (log2),[5],inactive: -0.00682
same,cell viability (log2),[6],inactive: 0.0327
same,cell viability (log2),[7],inactive: 0.087
same,cell viability (log2),[8],inactive: 0.144
